# Results taken from the supplement of paper PMC7826260.
# Some of the results follow. Viral Rep nickase domains cut single-stranded DNA in vitro (1 h at 37 °C, 3 µM enzyme); the outer parts of the 90-letter strands are left off. Values are log2 of uncut reads against the no-enzyme pool; strong cutting gives strongly negative numbers. There is no active / inactive call. Reads are scaled to the total, so uncut sequences can rise above 0 when many others are cut.
# Columns and labels:
# Experiment in all cases: uncleaved DNA left, log2 of reads against the no-enzyme library (log2 ratio); higher = less cleavage (more negative = more Rep cleavage of the k-mer); sequences stand for … in CTCGTCCG…ACCGGAGA
# [1] = system: T1, Rep nickase domain of Muscovy duck circovirus
# T1 sequence (residues 1-111, tag not shown): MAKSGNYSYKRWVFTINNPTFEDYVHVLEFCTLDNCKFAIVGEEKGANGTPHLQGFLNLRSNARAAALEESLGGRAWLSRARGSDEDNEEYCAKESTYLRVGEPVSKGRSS
# Method: (§1)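 A pool of 90-nt single-stranded DNAs with seven random bases just before the constant AC of the nick site (name = the seven bases) was cut by 3 µM recombinant His6-SUMO-tagged Rep nickase domain (300 nM DNA, 50 mM HEPES pH 8.0, 50 mM NaCl, 1 mM MnCl2, 1 h, 37 °C, three replicates). Uncut DNA was amplified and sequenced.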
# [2] = system: T2, Rep nickase domain of banana bunchy top virus
# T2 sequence (residues 1-94, tag not shown): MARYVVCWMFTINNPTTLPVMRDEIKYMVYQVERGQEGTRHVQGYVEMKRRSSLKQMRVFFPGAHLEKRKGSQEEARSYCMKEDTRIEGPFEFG
# Method: as §1
# [3] = system: T3, Rep nickase domain of cabbage leaf curl virus
# T3 sequence (residues 1-116, tag not shown): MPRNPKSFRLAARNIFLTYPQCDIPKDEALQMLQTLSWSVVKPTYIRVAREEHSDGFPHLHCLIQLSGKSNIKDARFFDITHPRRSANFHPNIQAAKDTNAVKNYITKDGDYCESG
# Method: as §1
# [4] = system: T4, Rep nickase domain of chickpea chlorotic dwarf virus
# T4 sequence (residues 1-124, tag not shown): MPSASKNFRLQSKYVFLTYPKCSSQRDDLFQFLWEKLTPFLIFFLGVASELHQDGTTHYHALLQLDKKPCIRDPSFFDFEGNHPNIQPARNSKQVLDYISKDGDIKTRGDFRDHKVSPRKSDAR
# Method: as §1
# [5] = system: T5, Rep nickase domain of faba bean necrotic yellows virus
# T5 sequence (residues 1-98, tag not shown): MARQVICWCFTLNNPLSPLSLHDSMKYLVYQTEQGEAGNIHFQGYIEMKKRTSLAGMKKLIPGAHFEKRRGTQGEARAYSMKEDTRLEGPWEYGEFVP
# Method: as §1
# [6] = system: T6, Rep nickase domain of maize striate mosaic virus
# T6 sequence (residues 1-117, tag not shown): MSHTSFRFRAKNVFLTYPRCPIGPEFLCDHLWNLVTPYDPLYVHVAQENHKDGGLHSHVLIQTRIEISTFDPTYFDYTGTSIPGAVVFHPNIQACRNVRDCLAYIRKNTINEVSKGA
# Method: as §1
# [7] = system: T7, Rep nickase domain of porcine circovirus 2
# T7 sequence (residues 2-116, tag not shown): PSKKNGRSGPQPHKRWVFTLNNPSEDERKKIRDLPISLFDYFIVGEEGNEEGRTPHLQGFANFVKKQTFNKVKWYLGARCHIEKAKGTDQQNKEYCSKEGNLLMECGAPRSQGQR
# Method: as §1
# [8] = system: T8, Rep nickase domain of tomato golden mosaic virus
# T8 sequence (residues 1-124, tag not shown): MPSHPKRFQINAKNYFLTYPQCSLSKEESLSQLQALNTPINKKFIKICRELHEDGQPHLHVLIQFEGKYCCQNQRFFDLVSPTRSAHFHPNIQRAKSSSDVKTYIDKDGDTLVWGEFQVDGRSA
# Method: as §1
# [9] = system: T9, Rep nickase domain of tomato yellow leaf curl virus
# T9 sequence (residues 1-136, tag not shown): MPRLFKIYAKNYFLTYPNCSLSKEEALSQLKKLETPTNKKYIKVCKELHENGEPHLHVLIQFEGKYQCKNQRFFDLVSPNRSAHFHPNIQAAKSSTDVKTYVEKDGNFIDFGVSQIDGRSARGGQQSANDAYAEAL
# Method: as §1
# [10] = system: T10, Rep nickase domain of wheat dwarf virus
# T10 sequence (residues 1-137, tag not shown): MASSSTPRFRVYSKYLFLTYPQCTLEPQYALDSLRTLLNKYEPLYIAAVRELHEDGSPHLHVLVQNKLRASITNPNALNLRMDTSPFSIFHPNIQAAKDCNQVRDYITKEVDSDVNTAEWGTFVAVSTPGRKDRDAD
# Method: as §1
Sequence,uncleaved DNA left (log2) [1],uncleaved DNA left (log2) [2],uncleaved DNA left (log2) [3],uncleaved DNA left (log2) [4],uncleaved DNA left (log2) [5],uncleaved DNA left (log2) [6],uncleaved DNA left (log2) [7],uncleaved DNA left (log2) [8],uncleaved DNA left (log2) [9],uncleaved DNA left (log2) [10]
CCTATAC,-0.06,-0.05,-0.0143,-0.745,-0.00315,-0.88,-0.0329,-0.0245,-0.0908,0.0187
TCCATAG,0.104,0.0224,-0.744,-0.626,0.065,-1.23,0.149,0.17,0.189,-0.0349
CACTCGA,-0.00455,0.0753,-0.561,-0.807,0.00381,-0.946,-0.0545,-0.0108,0.0274,-0.111
CTTGACG,-0.0279,-0.0231,-0.783,-0.508,-0.027,-0.943,0.172,-0.153,0.105,-0.145
GTGGGTA,0.0385,-0.0303,0.292,1.05,-0.0845,1.76,0.0373,0.102,-0.0573,-0.091
ACTCTCA,-0.078,0.0754,-0.218,-1.13,0.0333,-0.549,0.0119,0.0295,0.0476,0.0905
TTCGGCC,-0.0139,-0.0169,0.0668,-0.0245,0.0644,-0.482,0.0518,-0.0147,0.0145,0.0326
ACCAACT,-0.0897,-0.0189,-0.51,-2.73,0.0698,-0.686,-0.0573,-0.101,-0.1,-0.0758
CATCGAG,0.0107,0.0306,-0.237,-0.0649,-0.0629,-0.966,0.0191,-0.156,-0.0188,-0.0633
CCTTGCC,0.0115,-0.0904,-0.66,-0.862,0.0648,-0.997,-0.0766,-0.079,-0.0439,-0.0552
GGGTACT,-0.161,0.00555,0.753,1.87,-0.105,2.17,-1.48,-0.105,-0.0612,-0.0332
GAGGGAA,-0.0828,0.0861,0.373,1.19,-0.0643,1.77,0.109,0.069,-0.0471,-0.0208
GAGTGCA,0.0866,-0.0327,-0.0764,-0.0942,0.0344,-0.213,-2.52,0.139,0.0226,0.0821
TCCTTTA,-0.0874,-0.0712,0.201,-1.17,-0.0874,-0.469,-0.284,-0.0885,0.0423,-0.0958
ATATCAG,0.0167,-0.063,-0.758,-0.375,0.0525,-1.19,0.178,0.00636,0.0218,-0.0309
ACTACCG,-0.0617,0.0999,-0.866,-0.738,-0.0539,-0.912,0.0783,0.00259,-0.00589,-0.0594
GTCAAGG,0.19,0.263,0.428,1.15,0.139,1.96,0.201,0.258,0.177,0.264
TCTGTGA,0.0607,-0.124,-0.329,-0.692,-0.014,-1.08,-0.038,-0.102,-0.106,-0.187
TGGTCCT,-0.0975,0.0421,0.271,-0.666,-0.0496,0.992,-1.69,-0.0351,0.126,0.189
TCTGACC,0.0215,0.162,0.0851,0.64,0.0889,0.911,0.165,0.113,-0.0584,0.0194
TTAGGGG,0.0431,-0.119,0.336,0.604,-0.0532,0.46,0.111,0.0222,-0.0741,-0.0709
GAGATGA,0.234,0.159,0.622,1.43,0.208,1.62,0.249,0.0922,0.0499,0.137
AGTTGGC,0.0648,0.0163,-0.22,-0.225,0.0337,-0.92,0.142,0.135,-0.0543,-0.0214
TGGATTA,0.0875,0.111,0.519,0.728,-0.00405,1.4,0.192,0.141,0.171,0.191
GTCCCTT,0.0339,0.0182,0.396,0.656,0.0291,1.81,0.152,0.138,0.0475,0.198
GAGTTCT,-0.998,-2.29,0.119,-1.92,-1.57,1.05,-3.3,-0.0957,-0.00533,0.0287
AAGAACG,0.0727,0.0668,-0.707,-0.443,0.106,-1.07,0.289,0.0476,0.125,0.0151
CCGCAAC,0.181,0.147,0.11,-1.07,0.0903,-0.668,0.0411,-0.0356,-0.0166,0.058
GGCCCCT,0.179,0.129,0.522,0.814,0.0955,1.67,0.0942,0.0516,0.2,0.229
GCTTGCG,-0.00246,-0.0404,0.284,1.41,0.0693,1.51,0.177,0.0224,-0.095,-0.0598
